Data on five molecules can be found in patent US20210309710A1 (DAEWOONG PHARMACEUTICAL, published 2021).

Where a chain is given by its changes, count along the chain named.

For assay [1], the target named is Insulin receptor. The experiment in a line: SPR (BIACORE 3000), insulin receptor immobilized on CM5 chip. The protocol: (§1) To measure the binding affinities of native insulin and ABD-fused insulin analogues for insulin receptor, a surface plasmon resonance (SPR, BIACORE 3000, GE healthcare) analysis method was used. Insulin receptor was immobilized on a CM5 chip by an amine coupling method, and each of native insulin and ABD-fused insulin analogues, diluted to five or more concentrations, was bound thereto, and the affinities thereof for the insulin receptor were measured.

For assay [2], the target named is Recombinant human serum albumin (human). The experiment in a line: SPR (BIACORE 3000), recombinant HSA immobilized on CM5 chip. The protocol:
To measure the binding affinities of the ABD-fused insulin analogue proteins for albumin, a surface plasmon resonance (SPR, BIACORE 3000, GE healthcare) analysis method was used. Recombinant human serum albumin was immobilized on a CM5 chip by an amine coupling method, and the ABD or ABD-fused insulin analogues diluted to five or more concentrations were bound thereto, and the affinities thereof for the human serum albumin were measured.

For assay [3], the target named is Insulin receptor. The experiment in a line: SPR (BIACORE 3000), insulin receptor immobilized on CM5 chip; reference native insulin. On the procedure: as §1

B1: ABD-fused insulin analogue 1 (ligand)
chain 1: [about 40 residues not given here]
chain 2: GILEQCCTSICSLYQLENYCNGGGGSGGGGSLAEAKEAANAELDSYGVSDFYKKLIDKAKTVEGVEALKDAILAALP
notes: B chain and A chain are joined by disulfide bonds; also called long-acting insulin analogue derivative 1
B1 came in with a kon with Insulin receptor [1] of 85400 M⁻¹ s⁻¹. Moreover, in assay [2], the Kd is 0.0521 nM, the koff was determined as 2.37e-05 s⁻¹ and the kon turned out to be 454000 M⁻¹ s⁻¹.

B2: ABD-fused insulin analogue 5 (ligand)
chain 1: [about 40 residues not given here]
chain 2: B1 chain 2 with L3V, Y19F
notes: Built as the active two-chain form (fusion tag and C chain removed by clostripain and CpB); also called long-acting insulin analogue derivative 5
In the assay with Insulin receptor [1], B2 displayed a Kd of 57.5 nM, a koff of 0.00234 s⁻¹ and a kon of 40700 M⁻¹ s⁻¹. Moreover, in assay [2], the Kd is 0.096 nM, the koff was 3.13e-05 s⁻¹ and the on-rate constant (kon) was found to be 326000 M⁻¹ s⁻¹.

B3: ABD-fused insulin analogue 3 (ligand)
chain 1: [about 40 residues not given here]
chain 2: B1 chain 2 with L3V, I10K
notes: Built as the active two-chain form (fusion tag and C chain removed by clostripain and CpB); also called long-acting insulin analogue derivative 3
In the assay with Insulin receptor [1], B3 yielded a Kd of 86.5 nM, a koff of 0.00218 s⁻¹ and a kon of 25200 M⁻¹ s⁻¹. Moreover, in the assay with Insulin receptor [3], the “affinity relative to native insulin” value is approximately 19.4%. Further, in assay [2], the equilibrium dissociation constant (Kd) was 0.174 nM, the koff was 4.36e-05 s⁻¹ and the kon came to 251000 M⁻¹ s⁻¹.

B4: ABD-fused insulin analogue 4 (ligand)
chain 1: [about 40 residues not given here]
chain 2: B1 chain 2 with L3V, Y14E
notes: Built as the active two-chain form (fusion tag and C chain removed by clostripain and CpB); also called long-acting insulin analogue derivative 4
In the assay with Insulin receptor [1], B4 displayed a Kd of 46.5 nM, a koff of 0.00131 s⁻¹ and a kon of 28200 M⁻¹ s⁻¹. In assay [2], the Kd was 0.0717 nM, the off-rate (koff) was determined as 3.32e-05 s⁻¹ and the kon amounted to 464000 M⁻¹ s⁻¹.

B5: ABD-fused insulin analogue 2 (ligand)
chain 1: [about 40 residues not given here]
chain 2: B1 chain 2 with L3V, T8D
notes: Built as the active two-chain form (fusion tag and C chain removed by clostripain and CpB); also called long-acting insulin analogue derivative 2
As to B5, in the assay with Insulin receptor [1], binding was characterised by a dissociation constant (Kd) of 72 nM, the koff stood at 0.00315 s⁻¹ and the kon was found to be 43800 M⁻¹ s⁻¹. Also, in assay [2], the Kd worked out at 0.0711 nM, the koff turned out to be 3.14e-05 s⁻¹ and the kon was 442000 M⁻¹ s⁻¹.
